These results are taken from patent publication US20260248892A1 (Sanofi, published 2026).

What all share (experiment): cell-based or functional assay
Test [1] deals with human insulin receptor isoform B (human, UniProt P06213).
The target of test [2] is human insulin receptor isoform A (human, UniProt P06213-2).
The next test addresses Rat IR (rat, UniProt P15127 27-1383).
The next test concerns the target Pig IR (pig, UniProt F1SCL0 28-1382).

Rat IR, sequence (P15127 27-1383): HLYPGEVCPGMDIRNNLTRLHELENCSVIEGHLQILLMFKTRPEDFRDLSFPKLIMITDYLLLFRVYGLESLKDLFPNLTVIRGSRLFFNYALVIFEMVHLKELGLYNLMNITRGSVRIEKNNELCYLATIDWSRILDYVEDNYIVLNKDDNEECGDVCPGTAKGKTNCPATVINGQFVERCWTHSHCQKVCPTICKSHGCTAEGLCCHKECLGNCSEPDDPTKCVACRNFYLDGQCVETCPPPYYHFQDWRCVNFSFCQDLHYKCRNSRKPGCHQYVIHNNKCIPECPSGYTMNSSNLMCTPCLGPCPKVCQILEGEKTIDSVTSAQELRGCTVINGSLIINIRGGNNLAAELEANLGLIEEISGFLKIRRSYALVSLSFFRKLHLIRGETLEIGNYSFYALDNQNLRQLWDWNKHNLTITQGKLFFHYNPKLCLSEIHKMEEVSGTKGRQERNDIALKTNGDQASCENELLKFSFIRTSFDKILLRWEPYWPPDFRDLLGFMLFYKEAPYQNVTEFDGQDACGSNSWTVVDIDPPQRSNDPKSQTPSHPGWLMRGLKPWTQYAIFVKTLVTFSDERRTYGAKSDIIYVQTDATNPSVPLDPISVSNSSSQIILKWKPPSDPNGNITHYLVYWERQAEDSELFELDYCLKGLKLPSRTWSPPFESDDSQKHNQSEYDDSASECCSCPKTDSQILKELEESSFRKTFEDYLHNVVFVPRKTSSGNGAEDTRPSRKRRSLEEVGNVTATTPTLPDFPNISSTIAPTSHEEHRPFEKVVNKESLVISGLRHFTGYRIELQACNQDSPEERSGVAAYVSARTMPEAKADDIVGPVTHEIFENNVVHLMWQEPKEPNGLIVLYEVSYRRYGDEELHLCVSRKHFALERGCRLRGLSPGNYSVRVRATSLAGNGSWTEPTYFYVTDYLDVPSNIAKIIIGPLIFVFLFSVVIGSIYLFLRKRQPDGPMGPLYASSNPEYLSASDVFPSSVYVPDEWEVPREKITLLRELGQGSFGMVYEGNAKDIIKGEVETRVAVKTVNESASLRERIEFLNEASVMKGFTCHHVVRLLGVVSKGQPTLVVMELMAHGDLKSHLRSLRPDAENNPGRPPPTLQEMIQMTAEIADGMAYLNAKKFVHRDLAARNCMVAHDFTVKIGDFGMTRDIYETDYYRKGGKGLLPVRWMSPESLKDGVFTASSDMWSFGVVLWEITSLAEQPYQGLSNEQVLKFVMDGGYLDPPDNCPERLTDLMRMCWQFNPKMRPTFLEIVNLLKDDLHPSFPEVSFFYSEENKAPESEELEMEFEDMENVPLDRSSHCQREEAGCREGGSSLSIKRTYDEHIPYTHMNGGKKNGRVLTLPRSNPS

B1: scl-Fc fusion protein INS024 (Fc fusion)
chain: SFVNQHLCGSHLVEALELVCGERGFHYTPKTGSYPGGVGIVEQCCTSICSLEQLENYCGGEAEDLQVGQVELGGGPGAGSLQPEGSLQ[letters of human IgG1 Fc with changes left out]
As for B1, the “hIR-B-phosphorylation [EC50 nM] mean” value in test [1] amounted to 466 nM. For the same molecule, the “hIR-A phosphorylation [EC50 nM] mean” value in test [2] came to 449 nM. Further, the “Rat IR phosphorylation [EC50 nM] mean” value with Rat IR was 370 nM. In the test with Pig IR, the “Pig IR phosphorylation [EC 50 nM] mean” value came to 73.1 nM.
